The results in this text go back to the supplement of paper PMC8728848.

Some of the results follow.

Holding throughout (assay): glycan array binding signal (z-score within array); higher = stronger binding
What all share (conditions): glycan notation: IUPAC condensed, linker removed

Test [1] addresses Neu5Ac(a2-3)[Neu5Ac(a2-6)]GalNAc. Summed up:
(§1)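 Negative Z-scores can be read as non-binding. The Z-score is calculated within each array and then averaged across arrays of one protein sequence at different concentrations or buffers and across linkers. Arrays, 3228 in all, were curated from the Consortium for Functional Glycomics database and kept only where the protein sequence was available.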

The target of test [2] is Neu5Ac(a2-6)Gal. Summed up:
as §1

The target in test [3] is Neu5Ac(a2-6)Gal(b1-4)Glc. Summed up:
as §1

The target in test [4] is Neu5Ac(a2-6)Gal(b1-4)GlcNAc. Summed up:
as §1

The target in test [5] is Neu5Ac(a2-6)Gal(b1-4)GlcNAc(b1-3)Gal(b1-4)GlcNAc. Summed up: as §1
The target of test [6] is Neu5Ac(a2-6)Gal(b1-4)GlcNAc(b1-3)Gal(b1-4)[Fuc(a1-3)]GlcNAc(b1-3)Gal(b1-4)[Fuc(a1-3)]GlcNAc. Summed up: as §1
In test [7] the target is Neu5Ac(a2-6)Gal(b1-4)GlcNAc6S. In short, it runs like this: as §1
Test [8] addresses Neu5Ac(a2-6)GalNAc. In short, it runs like this:
as §1

The target in test [9] is Neu5Ac(a2-8)Neu5Ac. In short, it runs like this:
as §1

Test [10] deals with Neu5Ac(a2-8)Neu5Ac(a2-3)Gal(b1-4)Glc. In short, it runs like this: as §1
Test [11] deals with Neu5Ac(a2-8)Neu5Ac(a2-3)[GalNAc(b1-4)]Gal(b1-4)Glc. Summed up:
as §1

Test [12] concerns the target Neu5Ac(a2-8)Neu5Ac(a2-8)Neu5Ac. In short, it runs like this: as §1
For test [13], the target named is Neu5Ac(a2-8)Neu5Ac(a2-8)Neu5Ac(a2-3)Gal(b1-4)Glc. In short, it runs like this: as §1
For test [14], the target named is Neu5Ac(a2-8)Neu5Ac(a2-8)Neu5Ac(a2-3)[GalNAc(b1-4)]Gal(b1-4)Glc. Summed up:
as §1

For test [15], the target named is Neu5Ac(b1-6)GalNAc. Summed up: as §1
The target of test [16] is Neu5Ac(b2-6)Gal(b1-4)GlcNAc. In short, it runs like this: as §1
Test [17] concerns the target Neu5Ac9Ac(a2-6)Gal(b1-4)GlcNAc. Summed up:
as §1

In test [18] the target is Neu5Gc(a2-3)Gal(b1-3)GlcNAc. Summed up:
as §1

The target in test [19] is Neu5Gc(a2-3)Gal(b1-3)[Fuc(a1-4)]GlcNAc. In short, it runs like this:
as §1

The target of test [20] is Neu5Gc(a2-3)Gal(b1-4)Glc. Summed up: as §1
Test [21] has as its target Neu5Gc(a2-3)Gal(b1-4)GlcNAc. Summed up:
as §1

Test [22] has as its target Neu5Gc(a2-3)Gal(b1-4)[Fuc(a1-3)]GlcNAc. In short, it runs like this: as §1
Test [23] has as its target Neu5Gc(a2-6)Gal(b1-4)GlcNAc. In short, it runs like this: as §1
Test [24] deals with Neu5Gc(a2-6)GalNAc. Summed up: as §1

B1: RegIIIbeta (Mus musculus), P35230 (protein)
chain: MLPPTACSVMSWMLLSCLMLLSQVQGEDSLKNIPSARISCPKGSQAYGSYCYALFQIPQTWFDAELACQKRPGGHLVSVLNSAEASFLSSMVKRTGNSYQYTWIGLHDPTLGAEPNGGGWEWSNNDVMNYFNWERNPSTALDRAFCGSLSRASGFLKWRDMTCEVKLPYVCKFTG
For the molecule B1, the “glycan array binding signal (z-score)” value is -0.095 in test [1]; -0.12 in test [2]; -0.083 in test [3]; -0.103 in test [4]; -0.092 in [5]; -0.046 in test [6]. Besides, the “glycan array binding signal (z-score)” value in test [7] is -0.079; in test [8], -0.121; in test [9], -0.115; in test [10] it was -0.116; in [11], -0.11; in test [12], -0.106. The “glycan array binding signal (z-score)” value was -0.118 in [13]; -0.073 in test [14]; -0.119 in [15]; -0.115 in [16]; -0.117 in test [17]; -0.121 in test [18]. In addition, the “glycan array binding signal (z-score)” value in [19] was 0.106; in [20] it was -0.119; in [21], -0.116; in test [22] it was -0.001; in test [23], -0.122; in test [24] it was -0.124.
